The results in this text go back to PMC12040169 (PLOS Biology, 2025).

The other results are listed elsewhere or left out.

This assay deals with T1, C. trachomatis L2/434/Bu expressing GFP (CTL2-GFP).
T1 construct: L2/434/Bu GFP intracellular growth in HeLa cells
The arrangement: species or system HeLa; C. trachomatis total inclusion area by high-content imaging, normalised to DMSO. As to conditions: total inclusion area; 28.5 h, 10 µM; inhibitor. The method, boiled down:
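Following bulk GFP and resorufin fluorescence reads, infected cells were fixed, Hoechst-stained and imaged on a high-content platform. Inclusion total area and number per well served as growth proxies; nuclei counts indicated host viability. MICs were derived as for the fluorescence assay.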
For `CC(C)Nc1cccnc1N1CCN(C(=O)c2cc3cc(NC(=O)N4CCOCC4)ccc3[nH]2)CC1` [CBK007872], the “% of control remaining” value amounted to 153.425.
Regarding `NC(=S)N/N=C/c1c[nH]nc1-c1ccccc1` [CBK009705], the “% of control remaining” value came out at 71.7465.
As to `CN(Cc1ccc(Br)cc1Cl)C(=O)c1cn[nH]c1C1CCNC1` (stereo not drawn) [CBK304785], the “% of control remaining” value stood at 97.111.
Regarding `O=C(O)/C=C/c1cn([C@@H]2O[C@H](CO)[C@H](O)C2O)c(=O)[nH]c1=O` (stereo partly drawn) [CBK201270], the “% of control remaining” value is 116.749.
Take `COCCn1c(CO)nnc1[C@H]1C[C@@H](NC(=O)c2cc(C)ccc2Cl)C1` [CBK306564]: the “% of control remaining” value is on record as 86.5373.
Consider `CC(CCc1ccccc1)NC(=O)c1ccccc1C(=O)O` (stereo not drawn) [CBK286940], for which the “% of control remaining” value was determined as 86.2131.
The result for `CCn1c2ccccc2n2c(SCC(=O)O)nnc12` [CBK266869] reads 94.6712; that for `CN1CCN(C(C(=O)O)c2cn(CCC(=O)O)c3ccc(Br)cc23)CC1` (stereo not drawn) [CBK286698], 64.7227.
As to `CSc1ccc(CNC(=O)c2ccc(Cl)cc2)s1` [CBK057705], the “% of control remaining” value was 94.2452.
Consider `O=C(c1nccs1)C1CCN(C(=O)Cc2ccsc2)CC1` [CBK284176], for which the “% of control remaining” value stood at 83.3791.
As to `Cc1nn(C)c(Cl)c1S(=O)(=O)N1CCN(C)CC1` [CBK062426], the “% of control remaining” value was 112.868.
The result for `COc1ccc(NC(=O)N2CC[C@H]3CC(=O)N(CCN4CCNC4=O)CC[C@H]3C2)cc1` [CBK288797] reads 113.603; that for `COc1ccc(C(=O)Nc2ccc(S(=O)(=O)N3CCN(C)CC3)cc2)cc1[N+](=O)[O-]` [CBK268140], 101.428.
As to `CCOC(=O)c1cc2cc(NC(=O)N(CCO)C3CC3)ccc2s1` [CBK306007], the “% of control remaining” value was determined as 97.4725.
For `CN(C)CCSc1cncc(N2CCCC2)n1` [CBK105294], the “% of control remaining” value came out at 101.986.
In the case of `NC(=O)COc1ccc(C2CC(=O)Nc3c(-c4cccc(F)c4)csc32)cc1` (stereo not drawn) [CBK294441], the “% of control remaining” value is given as 93.0413.
On to `COCc1ccc(CN2CCC3(CCc4ccccc4C(=O)N3)C2)o1` (stereo not drawn) [CBK284651], for which the “% of control remaining” value came out at 81.2383.
For the molecule `Cc1cc(CNC(=O)N2CCN(CCc3ccccc3)CC2)no1` [CBK158898], the “% of control remaining” value turned out to be 101.9.
In the case of `CN(C)c1ccccc1C1(O)CN2CCC1CC2` (stereo not drawn) [CBK022620], the “% of control remaining” value is 91.7435.
Regarding `COc1ccc(C2CCN(Cc3cccnc3)CC2)cc1` [CBK283564], the “% of control remaining” value is 96.8469.
For `CCCCOc1ccc(C(N)CC(=O)O)cc1` (stereo not drawn) [CBK262915], the “% of control remaining” value was 107.746.
As for `O=C(O)CC/C(=N\Nc1ccc([N+](=O)[O-])cc1)c1ccc(F)cc1` [CBK017075], the “% of control remaining” value is reported as 104.373.
On to `CN1CCN(CCCNC(=O)N(C)C2CCN(C)C2)CC1` (stereo not drawn) [CBK155993], for which the “% of control remaining” value is recorded as 93.9401.
On to `Cc1ccc(-c2cc(-c3ccccc3O)nc(N/N=C/c3cccnc3)n2)cc1` [CBK262308], for which the “% of control remaining” value is listed as 96.8351.
As for `Fc1ccc(CN2CCC(n3cnc4cccnc43)CC2)cc1` [CBK283580], the “% of control remaining” value worked out at 77.3442.
Turning to `Nn1c(S)nnc1Cn1nnc2ccccc21` [CBK268233], the “% of control remaining” value was 93.6898.
As to `O=C(c1ccc(F)cc1)N1C[C@@H]2C[C@H](C1)c1ccc(-c3cncnc3)c(=O)n1C2` [CBK289185], the “% of control remaining” value is on record as 92.1562.
As to `O=C(CN1CCOCC1)N1CCN(C(=O)c2ccc(C(F)(F)F)cc2)C1` [CBK051555C], the “% of control remaining” value is on record as 66.6391.
As to `O=C(Nc1ccccc1)N1Cc2nc[nH]c2C[C@H]1c1nc(-c2ccccc2)no1` [CBK288997], the “% of control remaining” value was determined as 79.1114.
On to `CN1C(=S)SC(C)(N(O)C(=O)NC2CCCCC2)C1(C)C` (stereo not drawn) [CBK008916], for which the “% of control remaining” value was found to be 12.7002.
For `Cc1cc(N2CCN(C(=O)CCc3ccsc3)CC2)nc(C(C)C)n1` [CBK305710], the “% of control remaining” value was determined as 87.5781.
`CNC(=O)Cn1nc(C)c2cnn(-c3ccccc3)c2c1=O` [CBK287669]: the “% of control remaining” value is 120.664.
Consider `CCN(CC)C(=O)c1sc2ncccc2c1NS(=O)(=O)Cc1ccccc1[N+](=O)[O-]` [CBK050022], for which the “% of control remaining” value was determined as 104.132.
Next, `CC1CCCN(CC(C)(C)NC(=O)c2cc(C(F)(F)F)nn2C)C1` (stereo not drawn) [CBK281598]: 128.08.
Next, `COc1ccccc1-c1nccnc1NCc1ccc(C(F)(F)F)cc1` [CBK036788]: 115.586; `CCC(C(=O)Nc1sc2c(c1C(N)=O)CCCCCC2)c1ccccc1` (stereo not drawn) [CBK265383]: 91.7292.
Turning to `CC(=O)Nc1ccc(-c2ccc(COC3CCN(C(=O)Cc4ccc(Cl)cc4)CC3)cc2)cc1` [CBK149218], the “% of control remaining” value stood at 93.2968.
Next, `Cc1cc(C(=O)CSc2nnc(-c3ccccc3F)n2CC(C)C)c(C)[nH]1` [CBK297877]: 135.775.
As to `O=C(CN1CCCC1=O)N1CCN(C(=O)c2ccc(Br)o2)CC1` [CBK034530], the “% of control remaining” value was 32.6368.
As for `N#Cc1c(-c2ccccc2)noc1C/C=N/O` [CBK007357], the “% of control remaining” value is recorded as 82.1327.
Regarding `Cc1cc(C)nc(Nc2n[nH]c(-c3ccc(NC(=O)Nc4ccccc4)cc3)n2)n1` [CBK267076], the “% of control remaining” value is reported as 93.6855.
On to `O=C(O)c1cc(NS(=O)(=O)c2ccc([N+](=O)[O-])cc2)ccc1O` [CBK296077], for which the “% of control remaining” value was 51.7256.
On to `CCN(CC)C(=O)C1CCCN(C(=O)Nc2ccc3[nH]ccc3c2)C1` (stereo not drawn) [CBK156133], for which the “% of control remaining” value turned out to be 104.599.
Take `CSCCN1CCN(c2nccnc2OCC2COc3ccccc3O2)CC1` (stereo not drawn) [CBK082806T]: the “% of control remaining” value is 84.0141.
Take `Cn1cc(CN2CCCC(c3cccc(Cc4ccc(Cl)cc4)n3)C2)cn1` (stereo not drawn) [CBK286242]: the “% of control remaining” value was 60.8188.
`C#CCNS(=O)(=O)c1cccc(C(=O)NC2CCOc3ccccc32)c1` (stereo not drawn) [CBK305430]: the “% of control remaining” value turned out to be 63.2429.
As for `Nc1nc(N)c([C@H]2C[C@@H](O)[C@@H](CO)O2)nc1Cl` [CBK201326], the “% of control remaining” value came to 109.525.
As to `CCN(CC)C(=O)c1ccc(NC(=O)CSc2n[nH]c(=O)n2CC2CCCO2)cc1` (stereo not drawn) [CBK295186], the “% of control remaining” value was 82.8454.
The result for `CN1CCN(c2cc(NCC(c3cccnc3)N(C)C)nc3ccnn23)CC1` (stereo not drawn) [CBK037157] reads 81.6472; that for `Cc1nn(C)c(Cl)c1CN1CCCC(CCC(=O)N2CCN(C)CC2)C1` (stereo not drawn) [CBK307716], 41.3258.
For the molecule `O=C(O)CCCC(=O)NNC(=O)c1cccc(Br)c1` [CBK263530], the “% of control remaining” value is 109.782.
